{
  "source": "paper PMC4336329",
  "about": "(PLoS ONE, 2015)",
  "note": "About 2,200 (0.71%) of roughly 310,000 compounds showed an effect of 50% or more. Effects have a minus sign here. The list shows a part of the results.",
  "data": [
    {"molecular_target": "human ether-à-go-go-related gene (hERG) potassium channel (human, UniProt Q12809)", "sequence (Q12809 whole entry, looked up)": "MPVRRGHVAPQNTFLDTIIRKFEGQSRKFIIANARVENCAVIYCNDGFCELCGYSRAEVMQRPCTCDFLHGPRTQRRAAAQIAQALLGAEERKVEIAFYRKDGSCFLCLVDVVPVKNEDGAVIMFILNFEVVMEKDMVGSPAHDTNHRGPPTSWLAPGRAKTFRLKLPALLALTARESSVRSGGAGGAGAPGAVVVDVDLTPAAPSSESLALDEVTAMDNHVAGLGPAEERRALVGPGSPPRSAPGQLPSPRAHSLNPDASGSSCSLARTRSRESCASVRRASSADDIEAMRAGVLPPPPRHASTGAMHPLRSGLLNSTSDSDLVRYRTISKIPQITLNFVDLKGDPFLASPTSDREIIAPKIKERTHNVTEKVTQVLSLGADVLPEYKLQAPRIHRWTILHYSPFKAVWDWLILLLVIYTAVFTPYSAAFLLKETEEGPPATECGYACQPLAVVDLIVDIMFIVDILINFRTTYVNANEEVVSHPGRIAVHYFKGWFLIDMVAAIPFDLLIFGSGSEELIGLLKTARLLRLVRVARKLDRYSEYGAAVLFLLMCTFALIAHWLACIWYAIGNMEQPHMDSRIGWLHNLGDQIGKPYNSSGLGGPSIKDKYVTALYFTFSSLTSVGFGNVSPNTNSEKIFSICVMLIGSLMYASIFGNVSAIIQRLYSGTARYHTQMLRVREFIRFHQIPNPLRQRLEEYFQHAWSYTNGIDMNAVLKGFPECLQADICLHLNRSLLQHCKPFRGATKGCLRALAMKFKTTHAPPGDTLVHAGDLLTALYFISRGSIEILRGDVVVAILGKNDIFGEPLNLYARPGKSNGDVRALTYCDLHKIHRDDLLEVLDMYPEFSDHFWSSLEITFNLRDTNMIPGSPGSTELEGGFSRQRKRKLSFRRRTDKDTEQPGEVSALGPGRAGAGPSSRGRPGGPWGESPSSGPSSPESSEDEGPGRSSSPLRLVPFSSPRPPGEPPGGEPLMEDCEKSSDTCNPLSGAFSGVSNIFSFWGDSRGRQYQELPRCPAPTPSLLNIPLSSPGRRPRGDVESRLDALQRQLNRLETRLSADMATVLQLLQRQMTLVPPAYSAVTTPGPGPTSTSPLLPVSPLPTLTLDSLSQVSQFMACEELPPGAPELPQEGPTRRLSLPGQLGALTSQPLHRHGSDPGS", "assay": "primary screen, population patch clamp on CHO cells stably expressing hERG", "units": {"hERG current change (%, negative = inhibition) at 1uM": "%"}, "values": [
      {"smiles": "CCn1c(SCC(=O)N/N=C/C=C/c2ccccc2[N+](=O)[O-])nnc1-c1ccccc1", "hERG current change (%, negative = inhibition) at 1uM": 7.15},
      {"smiles": "CCCCNC(=S)Nc1ccc2[nH]c(=O)[nH]c2c1", "hERG current change (%, negative = inhibition) at 1uM": 6.39},
      {"smiles": "Cc1c(C(=O)Nc2ccc(C(=O)Nc3ccccc3)cc2)cccc1[N+](=O)[O-]", "hERG current change (%, negative = inhibition) at 1uM": 21},
      {"smiles": "COc1ccc(-n2c(Cc3cccn3C)nnc2SCC(=O)Nc2cc(C)cc(C)c2)cc1", "hERG current change (%, negative = inhibition) at 1uM": -33.3},
      {"smiles": "COc1ccccc1S(=O)Cc1ccc(C(=O)NCCc2ccc(Cl)cc2)o1", "note": "(stereo not drawn)", "hERG current change (%, negative = inhibition) at 1uM": -26.3},
      {"smiles": "CN1CCN(Cc2cc(=O)oc3cc4c(cc23)CCC4)CC1", "hERG current change (%, negative = inhibition) at 1uM": 3.09},
      {"smiles": "Cn1c(=O)n(C)c2cc(NC(=O)CCc3ccccc3)c(Br)cc21", "hERG current change (%, negative = inhibition) at 1uM": 12.8},
      {"smiles": "O=C(COC(=O)c1ccc2c(c1)OCO2)NCc1ccc(Cl)cc1", "hERG current change (%, negative = inhibition) at 1uM": 6.6},
      {"smiles": "CCN1CCN(c2ccc(S(=O)(=O)N3CCCCC3)cc2NC(=O)C(C)Oc2ccc(F)cc2)CC1", "note": "(stereo not drawn)", "hERG current change (%, negative = inhibition) at 1uM": -13.9},
      {"smiles": "COc1ccc(CCn2c(O)c(C=Nc3ccc(F)cc3)c(=O)[nH]c2=O)cc1OC", "hERG current change (%, negative = inhibition) at 1uM": 2.52},
      {"smiles": "Cc1ccccc1NC(=O)OCCN1CCN(Cc2ccccc2)CCC1=O", "hERG current change (%, negative = inhibition) at 1uM": 8.86},
      {"smiles": "O=C(NCc1ccccn1)C1CCN(S(=O)(=O)c2cccs2)CC1", "hERG current change (%, negative = inhibition) at 1uM": -9.76},
      {"smiles": "CCS(=O)(=O)C1=NN2C(=N)/C(=C\\c3ccc(OC(=O)c4ccco4)c(Br)c3)C(=O)N=C2S1", "hERG current change (%, negative = inhibition) at 1uM": 12.6},
      {"smiles": "Cc1cc(C)n2nc(C(=O)OCC(=O)c3ccc(F)cc3)nc2n1", "hERG current change (%, negative = inhibition) at 1uM": 9.39},
      {"smiles": "COc1cccc(OC)c1C(=O)Nc1nc(-c2ccccc2)cs1", "hERG current change (%, negative = inhibition) at 1uM": 7.23},
      {"smiles": "OCCC1CN(Cc2nc(-c3ccccc3)cs2)CCN1CCc1ccccc1", "note": "(stereo not drawn)", "hERG current change (%, negative = inhibition) at 1uM": -42.8},
      {"smiles": "O=C(CN1CCC(NC(=O)Nc2ccccc2)CC1)Nc1ccccc1F", "hERG current change (%, negative = inhibition) at 1uM": 3.31},
      {"smiles": "Cc1ccccc1S(=O)(=O)Cc1ccc(C(=O)NC(C)c2ccccc2)o1", "note": "(stereo not drawn)", "hERG current change (%, negative = inhibition) at 1uM": 28.3},
      {"smiles": "COCCN(C(=O)CNC(=O)c1cccs1)C(C(=O)NC1CCCCC1)c1ccco1", "note": "(stereo not drawn)", "hERG current change (%, negative = inhibition) at 1uM": -4.92},
      {"smiles": "Cc1cc2c(=O)n(C)c(SCC(=O)c3cc4ccccc4o3)nc2s1", "hERG current change (%, negative = inhibition) at 1uM": 12.8},
      {"smiles": "COc1ccc(-c2nnc(NC(=O)Cc3ccccc3)s2)c(OC)c1", "hERG current change (%, negative = inhibition) at 1uM": 13.6},
      {"smiles": "O=C(COc1ccccc1)N1CCN(CC2CC=CCC2)CC1.O=C(O)C(=O)O", "note": "(stereo not drawn)", "hERG current change (%, negative = inhibition) at 1uM": -8.91},
      {"smiles": "CNS(=O)(=O)c1cccc(C(=O)OCCCC(=O)c2ccccc2)c1", "hERG current change (%, negative = inhibition) at 1uM": -10.3},
      {"smiles": "CS(=O)(=O)N1CCc2cc(S(=O)(=O)Nc3ccc4oc5c(c4c3)CCCC5)ccc21", "hERG current change (%, negative = inhibition) at 1uM": 4.48},
      {"smiles": "COc1ccc(N2CC(C(=O)NCCC3=CCCCC3)CC2=O)c(OC)c1", "note": "(stereo not drawn)", "hERG current change (%, negative = inhibition) at 1uM": 7.9},
      {"smiles": "Cc1ccc(Nc2nnc(SCc3cc(=O)n4ccsc4n3)s2)c(C)c1", "hERG current change (%, negative = inhibition) at 1uM": 5.62},
      {"smiles": "O=C(/C(=C/O)N=Nc1cccc(C(F)(F)F)c1)c1ccccc1", "hERG current change (%, negative = inhibition) at 1uM": 12.4},
      {"smiles": "CCn1c(N2CCN(C(=S)NC)CC2)nc2ccccc21", "hERG current change (%, negative = inhibition) at 1uM": -9.88},
      {"smiles": "CC1(c2ccc(Cl)cc2)NC(=O)N(CC(=O)Nc2cccnc2Cl)C1=O", "note": "(stereo not drawn)", "hERG current change (%, negative = inhibition) at 1uM": 3.26},
      {"smiles": "CCOc1ccc(Br)cc1S(=O)(=O)Nc1cccc(S(=O)(=O)N(C)C)c1", "hERG current change (%, negative = inhibition) at 1uM": 1.93},
      {"smiles": "CC(c1ccccc1)n1c(Cn2ncc3ccccc3c2=O)n[nH]c1=S", "note": "(stereo not drawn)", "hERG current change (%, negative = inhibition) at 1uM": 1.65},
      {"smiles": "O=C(CSc1nncs1)NC(=O)Nc1ccc2c(c1)OCCO2", "hERG current change (%, negative = inhibition) at 1uM": -0.386},
      {"smiles": "O=C(COC(=O)/C=C/c1ccccc1)Nc1ccc(Cl)cn1", "hERG current change (%, negative = inhibition) at 1uM": 7.79},
      {"smiles": "CCn1c(=O)c(C(=O)Nn2c(C)nc3ccccc3c2=O)c(O)c2ccccc21", "hERG current change (%, negative = inhibition) at 1uM": 8.77},
      {"smiles": "Cc1c(-c2ccccc2)[n+](=O)c(-c2ccco2)c(C)n1[O-]", "hERG current change (%, negative = inhibition) at 1uM": 12.2},
      {"smiles": "COC(=O)CCCCCCCCCC[N+]1(C)CCCCC1.[I-]", "hERG current change (%, negative = inhibition) at 1uM": 0.673},
      {"smiles": "Cc1nc(N)c(C#N)c(-c2ccc3c(c2)OCO3)c1C", "hERG current change (%, negative = inhibition) at 1uM": 17.7},
      {"smiles": "CCOC(=O)Nc1ccc2c(c1)nc1n2CCN(CCOC)C1", "hERG current change (%, negative = inhibition) at 1uM": 16.1},
      {"smiles": "COc1ccc(OC)c(N)c1.Cl", "hERG current change (%, negative = inhibition) at 1uM": 17.5},
      {"smiles": "CCOc1ccc2cc(/C=C/C(=O)c3ccco3)c(Cl)nc2c1", "hERG current change (%, negative = inhibition) at 1uM": 14.5},
      {"smiles": "Cc1ccc(/C=C/C(=O)N2CCCC(C)C2)cc1", "note": "(stereo not drawn)", "hERG current change (%, negative = inhibition) at 1uM": 11.5},
      {"smiles": "O=Nc1ccc(NOC(=O)c2ccccc2Br)cc1", "hERG current change (%, negative = inhibition) at 1uM": 9.81},
      {"smiles": "CC(=O)N(O)CCCCCNC(=O)CCC(=O)N(O)CCCCCNC(=O)CCC(=O)N(O)CCCCCN.CS(=O)(=O)O", "hERG current change (%, negative = inhibition) at 1uM": 12.6},
      {"smiles": "CCC(CC)C(=O)c1c[nH]c(C(=O)NCc2ccccn2)c1", "hERG current change (%, negative = inhibition) at 1uM": 8.96},
      {"smiles": "O=C(NC1CCCC1)C(c1ccncc1)N(CCCN1CCOCC1)C(=O)c1ccc(-c2ccccc2)[nH]1", "note": "(stereo not drawn)", "hERG current change (%, negative = inhibition) at 1uM": -4.48}
    ]}
  ]
}
